Measured values from ChEMBL document CHEMBL1201862, “PubChem BioAssay data set” (2004).
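48-hour exposure; five concentrations; linearly interpolated endpoints. GI50 marks 50% less growth.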 Calls of active or inactive are those of the source. No stated cut-off is given here; in the data, active = GI50 up to about 1.1 µM and inactive = higher.

How the values were obtained:
Test in all cases: NCI anticancer screen, dose series, 48 h
SK-MEL-5 = test system: SK-MEL-5
HL-60 = test system: HL-60
NCI/ADR-RES = test system: NCI/ADR-RES
SW-620 = test system: SW-620
ACHN = test system: ACHN
DMS-273 = test system: DMS-273
UACC-257 = test system: UACC-257
HT-29 = test system: HT-29
BT-549 = test system: BT-549
OVCAR-5 = test system: OVCAR-5
NCI-H522 = test system: NCI-H522
XF498 = test system: XF498
M19-MEL = test system: M19-MEL
PC-3 = test system: PC-3
OVCAR-4 = test system: OVCAR-4
HOP-18 = test system: HOP-18
LOX IMVI = test system: LOX IMVI
M14 = test system: M14
A498 = test system: A498
RPMI-8226 = test system: RPMI-8226
CCRF-CEM = test system: CCRF-CEM
KM-20L2 = test system: KM-20L2
HCT-15 = test system: HCT-15
SF-295 = test system: SF-295
HOP-62 = test system: HOP-62
HOP-92 = test system: HOP-92
MDA-MB-231 = test system: MDA-MB-231
SF-539 = test system: SF-539
T47D = test system: T47D
SF-268 = test system: SF-268
MCF7 = test system: MCF7
K562 = test system: K562
Hs-578T = test system: Hs-578T
CAKI-1 = test system: CAKI-1
UACC-62 = test system: UACC-62
OVCAR-3 = test system: OVCAR-3
NCI-H23 = test system: NCI-H23
TK-10 = test system: TK-10
SK-MEL-28 = test system: SK-MEL-28
786-0 = test system: 786-0
SK-OV-3 = test system: SK-OV-3
DU-145 = test system: DU-145
EKVX = test system: EKVX
SR = test system: SR
HCT-116 = test system: HCT-116
MOLT-4 = test system: MOLT-4
SNB-19 = test system: SNB-19
KM12 = test system: KM12
RXF 393 = test system: RXF 393
LXFL 529 = test system: LXFL 529
OVCAR-8 = test system: OVCAR-8
NCI-H226 = test system: NCI-H226
U-251 = test system: U-251
MDA-MB-435 = test system: MDA-MB-435
DLD-1 = test system: DLD-1
MDA-N = test system: MDA-N
A549 = test system: A549
SK-MEL-2 = test system: SK-MEL-2
DMS-114 = test system: DMS-114
SNB-75 = test system: SNB-75
SN12C = test system: SN12C
UO-31 = test system: UO-31
NCI-H460 = test system: NCI-H460
HCC 2998 = test system: HCC 2998
IGROV-1 = test system: IGROV-1
Malme-3M = test system: Malme-3M
COLO 205 = test system: COLO 205

In the case of `COc1c(O)cc2c(c1OC)-c1ccc(SC)c(=O)cc1C(NC(C)=O)CC2` (configuration not stated), the GI50 (SK-MEL-5) was active: 0.0155 µM, the GI50 (HL-60) was active: 0.0148 µM and the GI50 (NCI/ADR-RES) was active: 0.705 µM. The GI50 (SW-620) was active: 0.0155 µM, the GI50 (ACHN) was active: 0.12 µM and the GI50 (DMS-273) was active: < 0.01 µM. For the same compound, the GI50 (UACC-257) was inactive: 1.55 µM, the GI50 (HT-29) was active: 0.0152 µM and the GI50 (BT-549) was active: < 0.01 µM. For the same compound, the GI50 (OVCAR-5) was inactive: 1.14 µM, the GI50 (NCI-H522) was active: 0.0162 µM and the GI50 (XF498) was active: < 0.01 µM. For the same compound, the GI50 (M19-MEL) was active: < 0.01 µM, the GI50 (PC-3) was active: 0.0313 µM and the GI50 (OVCAR-4) was inactive: 63.7 µM. The GI50 (HOP-18) was inactive: > 100 µM, the GI50 (LOX IMVI) was active: < 0.01 µM and the GI50 (M14) was active: 0.0182 µM. The GI50 (A498) was active: 0.0286 µM, the GI50 (RPMI-8226) was active: 0.0192 µM and the GI50 (CCRF-CEM) was active: 0.0194 µM. For the same compound, the GI50 (KM-20L2) was active: 0.0109 µM, the GI50 (HCT-15) was 0.0687 µM and the GI50 (SF-295) was active: 0.0199 µM. The GI50 (HOP-62) was active: 0.0259 µM, the GI50 (HOP-92) was active: 0.0607 µM and the GI50 (MDA-MB-231) was active: 0.0589 µM. For the same compound, the GI50 (SF-539) was active: 0.0188 µM, the GI50 (T47D) was inactive: > 100 µM and the GI50 (SF-268) was active: 0.0183 µM. For the same compound, the GI50 (MCF7) was active: 0.0262 µM, the GI50 (K562) was active: 0.015 µM and the GI50 (Hs-578T) was active: < 0.01 µM. For the same compound, the GI50 (CAKI-1) was active: 0.0509 µM, the GI50 (UACC-62) was active: 0.0152 µM and the GI50 (OVCAR-3) was active: 0.0176 µM. The GI50 (NCI-H23) was active: 0.0194 µM, the GI50 (TK-10) was inactive: 26.9 µM and the GI50 (SK-MEL-28) was active: 0.662 µM. The GI50 (786-0) was active: 0.0233 µM, the GI50 (SK-OV-3) was active: 0.0205 µM and the GI50 (DU-145) was active: 0.0356 µM. The GI50 (EKVX) was inactive: 29.6 µM, the GI50 (SR) was active: 0.0153 µM and the GI50 (HCT-116) was active: 0.0155 µM. For the same compound, the GI50 (MOLT-4) was active: 0.0189 µM, the GI50 (SNB-19) was active: 0.0621 µM and the GI50 (KM12) was active: 0.0143 µM. The GI50 (RXF 393) was active: 0.13 µM, the GI50 (LXFL 529) was active: < 0.01 µM and the GI50 (OVCAR-8) was active: 0.0237 µM. For the same compound, the GI50 (NCI-H226) was active: 0.0891 µM, the GI50 (U-251) was active: 0.0168 µM and the GI50 (MDA-MB-435) was active: 0.0185 µM. For the same compound, the GI50 (DLD-1) was active: 0.0127 µM, the GI50 (MDA-N) was active: 0.0182 µM and the GI50 (A549) was active: 0.0382 µM. For the same compound, the GI50 (SK-MEL-2) was active: 0.0221 µM, the GI50 (DMS-114) was active: < 0.01 µM and the GI50 (SNB-75) was active: 0.0199 µM. The GI50 (SN12C) was active: 0.0625 µM, the GI50 (UO-31) was inactive: 1.51 µM and the GI50 (NCI-H460) was active: 0.0203 µM. For the same compound, the GI50 (HCC 2998) was active: 0.0256 µM, the GI50 (IGROV-1) was active: 0.0181 µM and the GI50 (Malme-3M) was active: 0.0298 µM. The GI50 (COLO 205) was active: 0.0172 µM.
